Hit rate of the full screen: of about 310,000 compounds, about 14,000 (4.5%) showed an effect of 50% or more. Effects have a minus sign here. Some of the results follow.
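Also: peak tail current of the secondary pulse compared with the same well before compound.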

Chain of human ether-à-go-go-related gene (hERG) potassium channel (Q12809 whole entry, looked up): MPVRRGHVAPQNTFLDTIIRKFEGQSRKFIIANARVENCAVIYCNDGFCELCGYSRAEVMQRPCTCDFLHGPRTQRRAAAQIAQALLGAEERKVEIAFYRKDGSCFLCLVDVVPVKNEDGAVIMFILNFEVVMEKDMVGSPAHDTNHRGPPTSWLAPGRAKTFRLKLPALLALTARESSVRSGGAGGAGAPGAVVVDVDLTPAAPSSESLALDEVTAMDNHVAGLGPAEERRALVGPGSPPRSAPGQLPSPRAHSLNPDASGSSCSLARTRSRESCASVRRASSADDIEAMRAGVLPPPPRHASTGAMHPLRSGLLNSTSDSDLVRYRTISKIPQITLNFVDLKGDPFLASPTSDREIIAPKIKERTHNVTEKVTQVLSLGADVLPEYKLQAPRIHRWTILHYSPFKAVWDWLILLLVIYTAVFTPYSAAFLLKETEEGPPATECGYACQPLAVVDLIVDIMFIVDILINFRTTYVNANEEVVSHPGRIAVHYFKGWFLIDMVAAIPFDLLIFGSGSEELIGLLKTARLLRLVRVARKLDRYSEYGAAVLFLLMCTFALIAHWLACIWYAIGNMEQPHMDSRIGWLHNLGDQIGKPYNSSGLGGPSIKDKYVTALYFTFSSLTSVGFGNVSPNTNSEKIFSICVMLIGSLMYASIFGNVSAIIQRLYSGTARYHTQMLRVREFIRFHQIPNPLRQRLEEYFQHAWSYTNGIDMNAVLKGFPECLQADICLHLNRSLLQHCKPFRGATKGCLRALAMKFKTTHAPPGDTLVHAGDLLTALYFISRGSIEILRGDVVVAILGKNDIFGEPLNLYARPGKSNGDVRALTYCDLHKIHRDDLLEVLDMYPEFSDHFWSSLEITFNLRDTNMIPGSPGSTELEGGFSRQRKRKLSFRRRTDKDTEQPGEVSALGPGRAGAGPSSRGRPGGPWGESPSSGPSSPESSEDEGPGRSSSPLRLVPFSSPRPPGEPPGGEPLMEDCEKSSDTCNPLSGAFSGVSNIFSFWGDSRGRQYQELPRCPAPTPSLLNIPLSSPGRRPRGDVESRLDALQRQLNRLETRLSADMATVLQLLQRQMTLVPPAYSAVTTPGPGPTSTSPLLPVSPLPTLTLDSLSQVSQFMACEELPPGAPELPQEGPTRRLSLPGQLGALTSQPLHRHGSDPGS

The test concerns the target human ether-à-go-go-related gene (hERG) potassium channel (human, UniProt Q12809). Briefly: primary screen, population patch clamp on CHO cells stably expressing hERG.
For `Br.N=C1c2ccccc2CN1NC(=O)c1ccc(Cl)cc1`, the “hERG current change (%, negative = inhibition) at 10uM” value came out at 1.22%.
`CC(Oc1ccc(Cl)cc1Cl)C(=O)NC1CCSC1=O` (stereo not drawn): the “hERG current change (%, negative = inhibition) at 10uM” value is recorded as -17.3%.
The figure for `Cc1noc(C)c1CC(=O)NC1CC(C)(C)Cc2c1cnn2-c1ccccc1` (stereo not drawn) is 6.7%; for `CCOC(=O)N1CCC(N2CCN(S(=O)(=O)CC)CC2)CC1.O=C(O)C(=O)O` it is -1.19%.
Take `Cc1ccc(CN2CCN(/N=C/c3ccc(C)s3)CC2)c(C)c1`: the “hERG current change (%, negative = inhibition) at 10uM” value is -5.96%.
For the compound `CCc1noc(C)c1C(=O)NCCc1ccc(S(N)(=O)=O)cc1`, the “hERG current change (%, negative = inhibition) at 10uM” value is recorded as 6.85%.
Consider `C=CCn1c(CSCc2ccc(F)cc2)n[nH]c1=S`, for which the “hERG current change (%, negative = inhibition) at 10uM” value is reported as 11.6%.
For the compound `O=C(Nc1ccccc1C(=O)Nc1ccccn1)c1ccc([N+](=O)[O-])cc1`, the “hERG current change (%, negative = inhibition) at 10uM” value is given as -18%.
Consider `CN(C)Cc1cc(C(C)(C)c2cc(CN(C)C)c(O)c(CN(C)C)c2)cc(CN(C)C)c1O`, for which the “hERG current change (%, negative = inhibition) at 10uM” value is given as -1.21%.
Turning to `CC(=O)OC1CC2(C)/C(=N\O)CCC2C2CCc3cc(O)ccc3C12.CCO` (stereo not drawn), the “hERG current change (%, negative = inhibition) at 10uM” value is -5.1%.
Turning to `COc1ccc(N2CCN(C(=O)CSc3nnc4c(C)cc5cc(C)ccc5n34)CC2)cc1`, the “hERG current change (%, negative = inhibition) at 10uM” value is recorded as -21.2%.
Take `COc1ccc(-c2nc(C)ncc2-c2csc(C)n2)c(O)c1`: the “hERG current change (%, negative = inhibition) at 10uM” value is 11%.
With `CC(C)Cc1nc2oc3c(Cl)ncnc3c2c2c1CCC2`, the “hERG current change (%, negative = inhibition) at 10uM” value is reported as -3.91%.
The result for `CCOC(=O)c1c(C)[nH]c(C(=O)COC(=O)/C=C/c2ccc(O)c(OC)c2)c1C` reads 2.87%.
Take `O=C(NCc1ccc2c(c1)OCO2)C1CC(c2ccc(Cl)c(Cl)c2)=NO1` (stereo not drawn): the “hERG current change (%, negative = inhibition) at 10uM” value is given as 15%.
Regarding `Cc1cccc(NS(=O)(=O)c2ccc(C(=O)NCCCN3CCCC3=O)cc2)c1C`, the “hERG current change (%, negative = inhibition) at 10uM” value is on record as 4.04%.
The result for `O=C(CCC1CCCN(C(=O)Cn2cnnn2)C1)NCc1ccc(F)c(F)c1` (stereo not drawn) reads 3.81%; that for `CC(C)c1nnc(NC(=O)C2CCCN2C(=O)Nc2ccccc2F)s1` (stereo not drawn), -19.4%.
With `CCOC(=O)Cc1cc(=O)[nH]c(=O)[nH]1`, the “hERG current change (%, negative = inhibition) at 10uM” value turned out to be 20.2%.
For `CCOc1ccccc1C1C(C(N)=O)=C(C)Nc2nc(-c3cccc(C)c3)nn21` (stereo not drawn), the “hERG current change (%, negative = inhibition) at 10uM” value is 3.39%.
For the compound `Cc1cccc(CSCCNC(=O)Nc2ccccc2)c1`, the “hERG current change (%, negative = inhibition) at 10uM” value is reported as -1.65%.
On to `Cc1nnc(NC(=O)c2ccccc2-c2ccccc2C(=O)O)s1`, for which the “hERG current change (%, negative = inhibition) at 10uM” value worked out at 24.8%.
`Cc1ccc(NC(=O)C2CC(=O)N(Cc3ccccc3)C2)cc1S(=O)(=O)N1CCCCCC1` (stereo not drawn): the “hERG current change (%, negative = inhibition) at 10uM” value is -20.6%.
For the compound `O=C(CN1C(=O)NC(Cc2ccccc2)C1=O)Nc1ccccc1OC(F)F` (stereo not drawn), the “hERG current change (%, negative = inhibition) at 10uM” value is -5.53%.
Turning to `Cn1c(C(=O)N2CCCc3ccccc32)cc2c(=O)n3ccccc3nc21`, the “hERG current change (%, negative = inhibition) at 10uM” value is -8.76%.
Turning to `Cc1cc(/C=C2\SC(N)=NC2=O)c(C)n1-c1ccccc1`, the “hERG current change (%, negative = inhibition) at 10uM” value was determined as 7.5%.
In the case of `CCOc1cc(-n2cnnn2)c(OCC)cc1NC(=O)c1cnccn1`, the “hERG current change (%, negative = inhibition) at 10uM” value was found to be 3.01%.
As to `Nc1nc2ccc(C(=O)N3CCCCC3)cc2s1`, the “hERG current change (%, negative = inhibition) at 10uM” value was determined as 0.471%.
Consider `COc1ccc(N2CCN(C(=O)CN3C(=O)c4ccccc4S3(=O)=O)CC2)cc1`, for which the “hERG current change (%, negative = inhibition) at 10uM” value stood at 15.4%.
Take `Clc1ccccc1OCc1nc(-c2ccncc2)no1`: the “hERG current change (%, negative = inhibition) at 10uM” value is reported as -12.4%.
On to `CC(NCc1ccc2c(c1)OCO2)C(=O)NC1CCCCC1.O=C(O)C(=O)O` (stereo not drawn), for which the “hERG current change (%, negative = inhibition) at 10uM” value turned out to be 28.3%.
As for `CN(Cc1nc(Cc2ccccc2F)no1)CC1(N2CCOCC2)CCCCC1`, the “hERG current change (%, negative = inhibition) at 10uM” value is reported as -62.8%.
Consider `CCCC(=O)c1ccc(N2CCC(C)CC2)c(F)c1`, for which the “hERG current change (%, negative = inhibition) at 10uM” value was -22.8%.
On to `CCN(CC)CCCN(C(=O)c1ccccc1F)c1nc(-c2ccc(OC)cc2)cs1`, for which the “hERG current change (%, negative = inhibition) at 10uM” value was -71.4%.
The figure for `Cc1ccc(CN2CCN(Cc3cccn3-c3ccc(Cl)cn3)CC2CCO)o1` (stereo not drawn) is -23.3%; for `O=C1CCN(Cc2ccc(Br)cc2)CCN1[C@H](CO)c1ccccc1` it is -3.45%.
Turning to `O=C(c1cc(COc2c(F)cccc2F)on1)N1CCN(C2CCCCC2)CC1`, the “hERG current change (%, negative = inhibition) at 10uM” value is given as -52%.
The figure for `C/C(N)=C(/C#N)C(=O)CSc1nncn1-c1ccccc1` is 4.71%.
Consider `COCCN(C(=O)COc1ccccc1)c1nnc(-c2cccnc2)s1`, for which the “hERG current change (%, negative = inhibition) at 10uM” value was -5.62%.
The result for `CCOc1ccc(NC(=O)CSc2nc(N)c(-c3ccccc3)c(=O)[nH]2)cc1` reads 17.3%.
For the compound `COC1(OC)C(/C=C/c2ccc(Cl)cc2)C(C#N)(C#N)C1(OC)OC` (stereo not drawn), the “hERG current change (%, negative = inhibition) at 10uM” value is recorded as 5.66%.
With `Cc1[nH]c2ccccc2c1/C=N/Nc1ccc([N+](=O)[O-])cc1`, the “hERG current change (%, negative = inhibition) at 10uM” value came to 3.95%.
In the case of `Fc1cccc(CSc2ccc3nnc(-c4ccccn4)n3n2)c1`, the “hERG current change (%, negative = inhibition) at 10uM” value was -77.9%.
Take `COc1ccc(-c2nc(CC(=O)Nc3cccc(S(=O)(=O)NC4=NCCC4)c3)cs2)cc1`: the “hERG current change (%, negative = inhibition) at 10uM” value is 3.68%.
The figure for `CCN1CCN(C(=O)c2ccc3nc(-c4ccccc4)c(-c4ccccc4)nc3c2)CC1` is -17.4%.
`Cc1cc(C)c2c(=O)[nH]cnc2n1`: the “hERG current change (%, negative = inhibition) at 10uM” value is 6.28%.
As to `COC(=O)c1ccccc1NC(=S)NC(=O)c1cccc2ccccc12`, the “hERG current change (%, negative = inhibition) at 10uM” value is given as 14.3%.
The figure for `Fc1ccccc1-c1nnc2ccc3ccccc3n12` is 3.52%; for `Cl.O=C(CN1CCN(c2ncccn2)CC1)NCCC1=CCCCC1` it is -10.4%.
Take `Fc1cc(Br)ccc1Nc1nc2ccccc2n2nnnc12`: the “hERG current change (%, negative = inhibition) at 10uM” value is recorded as -4.72%.
`Nn1c(Cc2cccc3ccccc23)nnc1SCc1ccccc1`: the “hERG current change (%, negative = inhibition) at 10uM” value was 0.216%.
As to `N#Cc1ncc(C(F)(F)F)cc1Oc1cccnc1`, the “hERG current change (%, negative = inhibition) at 10uM” value worked out at 1.44%.
As to `Cc1cc(SC(C)C(=O)Nc2ncc(Cl)cc2Cl)nc2ccccc12` (stereo not drawn), the “hERG current change (%, negative = inhibition) at 10uM” value was determined as 22.8%.
As to `CC(=O)Nc1ccc(NC(=O)CN(C)CC(=O)Nc2ccccc2Br)cc1`, the “hERG current change (%, negative = inhibition) at 10uM” value is on record as -5.24%.
As for `Oc1ccc(/C=N/N2CCCCC2)cc1O`, the “hERG current change (%, negative = inhibition) at 10uM” value came out at 5.46%.
On to `CCOc1ccccc1NC(=O)CCN1CCN(S(=O)(=O)c2ccc(OC)cc2)CC1`, for which the “hERG current change (%, negative = inhibition) at 10uM” value is reported as -2.27%.
The result for `O=C(N/N=C/c1ccccc1O)c1cc[n+]([O-])cc1` reads 19.4%.

The record behind these values is paper PMC4336329 (PLoS ONE, 2015).
